# Data taken from PubChem BioAssay AID1347434 (National Center for Advancing Translational Sciences (NCATS), 2020).
# Out of some 1,200 compounds screened, about 30 (2%) were called active. Not shown: some 23% with an inconclusive outcome. Calls come from the whole dose curve; as a rule, active = well fitted inhibition curve with a large enough effect; inconclusive = small, poorly fitted or top-dose-only effect; inactive = flat fitted curve, though single readings scatter. This is one part of the list.
# Molecular target: Single-stranded DNA cytosine deaminase (Homo sapiens) (UniProt Q9GZX7)
# Sequence of UniProt Q9GZX7 (Q9GZX7 whole entry, looked up): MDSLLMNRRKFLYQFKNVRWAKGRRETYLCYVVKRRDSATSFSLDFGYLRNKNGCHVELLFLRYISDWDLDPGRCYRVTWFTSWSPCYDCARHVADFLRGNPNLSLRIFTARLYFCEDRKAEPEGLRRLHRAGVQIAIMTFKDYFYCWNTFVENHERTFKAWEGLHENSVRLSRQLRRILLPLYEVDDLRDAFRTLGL
# Assay: Confirmatory qHTS assay for inhibitors of Activation Induced Cytidine Deaminase (AID): AID signals
# Details: recombinant AID, FRET deamination/UDG coupled fluorescence, 4 h; series mostly up to 115 µM; activity, negative = inhibition: at the top concentration
# Procedure, shortened: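 Read 1 (AID) was measured at 540 ex/590 em after a 30 min NaOH step. The reaction was AID (1 uM, 4/3x stock) with UDG, compound at final 7.32 nM - 114 uM for 10 min, then DJC20/DJC23 substrate for 4 hr at room temperature. A UDG read at 560/665 serves as counterscreen.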
# % is set by controls: 0 for no effect and ±100 for the full control effect; potency is the fitted concentration of half-maximal effect.
SMILES,"activity, negative = inhibition",Potency
O=C(CC1N=C2c3ccccc3N=C(SCc3ccccc3F)N2C1=O)NCc1ccc2c(c1)OCO2 (stereo not drawn),inactive: -25.5%,–
O=C(NCCc1nc2ccccc2n1CCCOc1ccc(Cl)cc1)C1CCCCC1,inactive: -7.72%,–
Fc1ccc(Cn2c(-c3cccc(Br)c3)nc3ccccc32)cc1,inactive: -17.1%,–
CCc1ccccc1NC(=O)CSc1nc(-c2ccccc2OC)nc2c1Cc1c(CO)cnc(C)c1O2,inactive: -27.7%,–
Cc1nc2nc(SCC(=O)NCCc3ccc(Cl)cc3)nn2c(C)c1Cc1ccccc1,inactive: -24.9%,–
Cc1ccc(N2C(=O)c3[nH]nc(-c4ccc(Cl)cc4)c3C2c2ccc(F)cc2)cc1 (stereo not drawn),inactive: -4.47%,–
Cc1c(C)n(C)c2ccc(C(=O)N3CCN(c4ccccc4)CC3)cc12,inactive: 0.494%,–
COc1ccccc1C(=O)NCCn1cc(SCc2ccccc2Cl)c2ccccc21,inactive: -0.695%,–
C=Cc1ccc(CN2C(=O)N(c3cccc(Cl)c3)S(=O)(=O)c3ccccc32)cc1,inactive: 1.5%,–
CC(C)(C)OC(=O)N1CCC(c2c(C(=O)NCCN3CCC(Cc4ccccc4)CC3)cnn2-c2ccccc2)CC1,inactive: -19.5%,–
COc1ccc(OCC(=O)NCC(c2ccc(Cl)cc2)N2CCCCC2)cc1 (stereo not drawn),inactive: -11.1%,–
CCCCOc1ccc(C(=O)N(Cc2ccc(C(C)C)cc2)C2CCS(=O)(=O)C2)cc1 (stereo not drawn),inactive: -12.5%,–
COc1ccc(-n2cc(-c3ccccc3)c3c(NC4CCCC4)ncnc32)cc1,inactive: -13.8%,–
Cc1ccc(S(=O)(=O)Nc2nc3n(n2)C(c2ccccc2Cl)C=C(c2ccccc2)N3)cc1 (stereo not drawn),inactive: -17.4%,–
O=C(CCCCCn1c(=O)[nH]c2ccccc2c1=O)NCc1ccc(Cl)cc1,inactive: 9.51%,–
COc1ccc(CCNC(=O)Cn2nc(C)c3c(C)n(-c4ccc(C)cc4)nc3c2=O)c(OC)c1,inactive: -17.2%,–
COc1cccc(CSc2nc(-c3ccccc3OC)nc3c2Cc2c(CO)cnc(C)c2O3)c1,inactive: -23.5%,–
CCn1cc2nc(SCc3cccc(F)c3)n(CCc3ccccc3)c(=O)c2n1,inactive: -16.5%,–
COc1ccccc1-c1nc2cc(NC(=O)c3ccccc3Cl)ccc2o1,inactive: -16.3%,–
Cc1nc(-c2ccc(F)cc2)sc1CCNC(=O)c1ccc(C(C)(C)C)cc1,inactive: -13.9%,–

SMILES,"activity, negative = inhibition",Potency
COc1ccc(C(=O)Nc2nc3c(s2)Cc2cc(OC)ccc2-3)cc1,inactive: -28.4%,–
CCC1CN(C(=O)N2CCC(C(=O)N3CCN(c4cc(C)ccc4C)CC3)CC2)c2ccccc2O1 (stereo not drawn),inactive: -27.1%,–
CC1CCN(C(=O)C(C)Sc2nc(-c3ccccc3)cc(C(F)(F)F)n2)CC1 (stereo not drawn),inactive: -10.3%,–
O=C(CSc1nc2ccccc2nc1Cc1ccccc1)N1CCCCC1,inactive: -24.9%,–
Cn1nc(-c2ccccc2F)c2cc(C(=O)N3CCN(c4ccc(F)cc4)CC3)sc21,inactive: -16%,–
Cc1ccc(C)c(N2CCN(CCCNC(=O)c3ccc4nc(N5CCCCC5)sc4c3)CC2)c1,inactive: -11%,–
CCCOc1c(Cl)cc(C(=O)N(Cc2cccc(OC)c2)C2CCS(=O)(=O)C2)cc1Cl (stereo not drawn),inactive: -14.3%,–
O=C(NCc1ccccc1Cl)c1ccc2c(O)c(S(=O)(=O)c3ccccc3)c(=O)[nH]c2c1,inactive: -12.7%,–
CCOc1ccc(-n2c(CCC(=O)O)ccc2-c2ccc(Br)cc2)cc1,inactive: -24.3%,–
CCC(C(=O)N1CCN(c2ccccc2)CC1)n1nc(C)n2c(cc3sccc32)c1=O (stereo not drawn),inactive: -13.4%,–
CCCOc1ccc(-c2nn(-c3ccccc3)cc2C2NC(=O)NC(C)=C2C(=O)OC(C)C)cc1 (stereo not drawn),inactive: -11.1%,–
C=Cc1ccc(Cn2nc(-c3ccc(C)c(S(=O)(=O)N(CC)CC)c3)ccc2=O)cc1,inactive: -25.5%,–
Cn1nc(-c2ccc(C(=O)Nc3ccc(F)cc3)cc2)c2ccccc2c1=O,inactive: -28.5%,–
O=C(O)CSc1c2c(nc3cc(C(=O)Nc4ccc(F)c(Cl)c4)ccc13)CCC2,inactive: -9.98%,–
CCCN1CCN(CCCNC(=O)c2ccc3c(c2)sc2nc(-c4ccc(OCC)cc4)cn23)CC1,inactive: -14.1%,–
COc1ccc(OC)c(NC(=O)N2CC(C)Oc3ccc(C)cc32)c1 (stereo not drawn),inactive: -7.39%,–
Cc1ccc(OCC(=O)N(Cc2ccc(Cl)cc2)CC2CCCO2)cc1C (stereo not drawn),inactive: -15.7%,–
Cc1ccccc1Cn1c(CN2CCN(c3cc(Cl)ccc3C)CC2)nc2c1c(=O)[nH]c(=O)n2C,inactive: -3.76%,–
CCOc1ccccc1NC(=O)CSC1=Nc2ccccc2C2=NC(CC(=O)NC3CCCCC3)C(=O)N12 (stereo not drawn),inactive: -4.92%,–
CCOc1ccc(NC(=O)CN(C)S(=O)(=O)c2ccc3c(c2)c(=O)n(C)c(=O)n3C)cc1,inactive: 8.36%,–

SMILES,"activity, negative = inhibition",Potency
Cc1ccc(C)c(CNC(=O)c2cnc3sc(N4CCCC4)nn3c2=O)c1,inactive: 3.74%,–
CCOC(=O)C1=C(CN(CC)Cc2ccccc2)NC(=O)NC1c1ccc(OC(C)C)cc1 (stereo not drawn),inactive: -13.7%,–
COc1ccc(CCN2CCC(CNC(=O)c3cnn(-c4ccccc4)c3C3CCN(C(=O)OC(C)(C)C)CC3)CC2)cc1,inactive: -15%,–
Cc1ccc(Cc2nc3ccccc3nc2SCC(=O)N2CCCCC2C)cc1 (stereo not drawn),inactive: -16.1%,–
Cc1cccn2c(=O)c3cc(C(=O)N(Cc4ccccc4)C(C)C)sc3nc12,inactive: -25.5%,–
CCN(CC)C(=O)C1CCCN(c2ncnc3c2c(-c2ccccc2)cn3-c2cccc(C)c2)C1 (stereo not drawn),inactive: -15%,–
CCC(C)NC(=O)c1cn(CC)c2ccc(S(=O)(=O)N3CCc4ccccc4C3)cc2c1=O (stereo not drawn),inactive: -23.3%,–
Cc1cccc(NC(=O)COc2ccc3oc4c(c3c2)CCCC4)c1,inactive: -2.46%,–
Cc1ccc(CNC(=O)CSCc2nc(-c3cccc(C)c3)oc2C)cc1,inactive: -11.1%,–
COc1ccccc1N1CCN(C(=O)c2cc3c(-c4ccccc4F)nn(C)c3s2)CC1,inactive: -21.4%,–
CCOc1cccc(C(=O)N(Cc2ccc(F)cc2)Cc2ccco2)c1,inactive: -12.4%,–
CCC(=O)N1CCc2cc(Br)cc(S(=O)(=O)CCC(=O)N(C)c3cccc(C)c3)c21,inactive: -4.64%,–
O=C1CC(c2nc3ccccc3n2CCC2CCCCC2)CN1c1ccccc1Cl (stereo not drawn),inactive: -8.71%,–
CC(=O)O[C@H]1C[C@@H]2CC[C@@H]3[C@H](CC[C@@]4(C)[C@H]3C[C@H]([N+]3(C)CCCCC3)[C@@H]4OC(C)=O)[C@@]2(C)C[C@@H]1[N+]1(C)CCCCC1,–,active: 17.8 µM
CCc1ccc(CNC(=O)CSCc2cnn(-c3ccccc3)c2-n2cccc2)cc1,inactive: -4.5%,–
COc1cccc(-c2nc(CS(=O)CC(=O)N3CCN(c4cccc(C(F)(F)F)c4)CC3)c(C)o2)c1 (stereo not drawn),inactive: -23.9%,–
Cc1ccccc1Cc1c(C)nc2nc(SCC(=O)NC(C)c3ccccc3)nn2c1C (stereo not drawn),inactive: -11.1%,–
Cc1ccccc1-c1noc(CSc2nnc(Cc3ccccc3)n2-c2ccc(F)cc2)n1,inactive: -16.2%,–
